Patent US20110319597A1 (CAPHALON AUSTRALIA, published 2011)

B1: TNFα dAb Fc variant Q3L (Fc fusion, name in Kabat numbering)
chain: DILMTQSPSSLSASVGDRVTITCRASQAIDSYLHWYQQKPGKAPKLLIYSASNLETGVPSRFSGSGSGTDFTLTISSLLPEDFATYYCQQVVWRPFTFGQGTKVEIKRV[human IgG1 Fc with changes left out]
B2: TNFα dAb Fc variant Q3Y (Fc fusion, name in Kabat numbering)
chain: DIYMTQSPSSLSASVGDRVTITCRASQAIDSYLHWYQQKPGKAPKLLIYSASNLETGVPSRFSGSGSGTDFTLTISSLLPEDFATYYCQQVVWRPFTFGQGTKVEIKRV[human IgG1 Fc with changes left out]
B3: TNFα dAb Fc variant Q3D (Fc fusion, name in Kabat numbering)
chain: DIDMTQSPSSLSASVGDRVTITCRASQAIDSYLHWYQQKPGKAPKLLIYSASNLETGVPSRFSGSGSGTDFTLTISSLLPEDFATYYCQQVVWRPFTFGQGTKVEIKRV[human IgG1 Fc with changes left out]
B4: TNFα dAb Fc variant Q3H (Fc fusion, name in Kabat numbering)
chain: DIHMTQSPSSLSASVGDRVTITCRASQAIDSYLHWYQQKPGKAPKLLIYSASNLETGVPSRFSGSGSGTDFTLTISSLLPEDFATYYCQQVVWRPFTFGQGTKVEIKRV[human IgG1 Fc with changes left out]
B5: TNFα dAb Fc variant Q3P (Fc fusion, name in Kabat numbering)
chain: DIPMTQSPSSLSASVGDRVTITCRASQAIDSYLHWYQQKPGKAPKLLIYSASNLETGVPSRFSGSGSGTDFTLTISSLLPEDFATYYCQQVVWRPFTFGQGTKVEIKRV[human IgG1 Fc with changes left out]
B6: TNFα dAb Fc variant Q3K (Fc fusion, name in Kabat numbering)
chain: DIKMTQSPSSLSASVGDRVTITCRASQAIDSYLHWYQQKPGKAPKLLIYSASNLETGVPSRFSGSGSGTDFTLTISSLLPEDFATYYCQQVVWRPFTFGQGTKVEIKRV[human IgG1 Fc with changes left out]
B7: TNFα dAb Fc variant Q6A (Fc fusion, name in Kabat numbering)
chain: DIQMTASPSSLSASVGDRVTITCRASQAIDSYLHWYQQKPGKAPKLLIYSASNLETGVPSRFSGSGSGTDFTLTISSLLPEDFATYYCQQVVWRPFTFGQGTKVEIKRV[human IgG1 Fc with changes left out]
B8: TNFα dAb Fc variant S7A (Fc fusion, name in Kabat numbering)
chain: DIQMTQAPSSLSASVGDRVTITCRASQAIDSYLHWYQQKPGKAPKLLIYSASNLETGVPSRFSGSGSGTDFTLTISSLLPEDFATYYCQQVVWRPFTFGQGTKVEIKRV[human IgG1 Fc with changes left out]
B9: TNFα dAb Fc variant S7L (Fc fusion, name in Kabat numbering)
chain: DIQMTQLPSSLSASVGDRVTITCRASQAIDSYLHWYQQKPGKAPKLLIYSASNLETGVPSRFSGSGSGTDFTLTISSLLPEDFATYYCQQVVWRPFTFGQGTKVEIKRV[human IgG1 Fc with changes left out]
B10: TNFα dAb Fc variant S7Y (Fc fusion, name in Kabat numbering)
chain: DIQMTQYPSSLSASVGDRVTITCRASQAIDSYLHWYQQKPGKAPKLLIYSASNLETGVPSRFSGSGSGTDFTLTISSLLPEDFATYYCQQVVWRPFTFGQGTKVEIKRV[human IgG1 Fc with changes left out]
B11: TNFα dAb Fc variant S7D (Fc fusion, name in Kabat numbering)
chain: DIQMTQDPSSLSASVGDRVTITCRASQAIDSYLHWYQQKPGKAPKLLIYSASNLETGVPSRFSGSGSGTDFTLTISSLLPEDFATYYCQQVVWRPFTFGQGTKVEIKRV[human IgG1 Fc with changes left out]
B12: TNFα dAb Fc variant S7Q (Fc fusion, name in Kabat numbering)
chain: DIQMTQQPSSLSASVGDRVTITCRASQAIDSYLHWYQQKPGKAPKLLIYSASNLETGVPSRFSGSGSGTDFTLTISSLLPEDFATYYCQQVVWRPFTFGQGTKVEIKRV[human IgG1 Fc with changes left out]
B13: TNFα dAb Fc variant S7H (Fc fusion, name in Kabat numbering)
chain: DIQMTQHPSSLSASVGDRVTITCRASQAIDSYLHWYQQKPGKAPKLLIYSASNLETGVPSRFSGSGSGTDFTLTISSLLPEDFATYYCQQVVWRPFTFGQGTKVEIKRV[human IgG1 Fc with changes left out]
B14: TNFα dAb Fc variant S7K (Fc fusion, name in Kabat numbering)
chain: DIQMTQKPSSLSASVGDRVTITCRASQAIDSYLHWYQQKPGKAPKLLIYSASNLETGVPSRFSGSGSGTDFTLTISSLLPEDFATYYCQQVVWRPFTFGQGTKVEIKRV[human IgG1 Fc with changes left out]
B15: TNFα dAb Fc variant S9A (Fc fusion, name in Kabat numbering)
chain: DIQMTQSPASLSASVGDRVTITCRASQAIDSYLHWYQQKPGKAPKLLIYSASNLETGVPSRFSGSGSGTDFTLTISSLLPEDFATYYCQQVVWRPFTFGQGTKVEIKRV[human IgG1 Fc with changes left out]
B16: TNFα dAb Fc variant S9L (Fc fusion, name in Kabat numbering)
chain: DIQMTQSPLSLSASVGDRVTITCRASQAIDSYLHWYQQKPGKAPKLLIYSASNLETGVPSRFSGSGSGTDFTLTISSLLPEDFATYYCQQVVWRPFTFGQGTKVEIKRV[human IgG1 Fc with changes left out]
B17: TNFα dAb Fc variant S9D (Fc fusion, name in Kabat numbering)
chain: DIQMTQSPDSLSASVGDRVTITCRASQAIDSYLHWYQQKPGKAPKLLIYSASNLETGVPSRFSGSGSGTDFTLTISSLLPEDFATYYCQQVVWRPFTFGQGTKVEIKRV[human IgG1 Fc with changes left out]
B18: TNFα dAb Fc variant S9Q (Fc fusion, name in Kabat numbering)
chain: DIQMTQSPQSLSASVGDRVTITCRASQAIDSYLHWYQQKPGKAPKLLIYSASNLETGVPSRFSGSGSGTDFTLTISSLLPEDFATYYCQQVVWRPFTFGQGTKVEIKRV[human IgG1 Fc with changes left out]
B19: TNFα dAb Fc variant S9H (Fc fusion, name in Kabat numbering)
chain: DIQMTQSPHSLSASVGDRVTITCRASQAIDSYLHWYQQKPGKAPKLLIYSASNLETGVPSRFSGSGSGTDFTLTISSLLPEDFATYYCQQVVWRPFTFGQGTKVEIKRV[human IgG1 Fc with changes left out]
B20: TNFα dAb Fc variant S9P (Fc fusion, name in Kabat numbering)
chain: DIQMTQSPPSLSASVGDRVTITCRASQAIDSYLHWYQQKPGKAPKLLIYSASNLETGVPSRFSGSGSGTDFTLTISSLLPEDFATYYCQQVVWRPFTFGQGTKVEIKRV[human IgG1 Fc with changes left out]

Target: recombinant human TNFα (human, UniProt P01375 fragment)
Chain of UniProt P01375 (P01375 77-233 limits assumed): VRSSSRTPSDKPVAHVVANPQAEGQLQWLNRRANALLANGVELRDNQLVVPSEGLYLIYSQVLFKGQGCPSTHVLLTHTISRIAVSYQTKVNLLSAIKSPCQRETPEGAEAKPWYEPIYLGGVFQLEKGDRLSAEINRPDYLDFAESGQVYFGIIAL
Test: cell-based or functional assay

Binder | Standardized EC50, L929 neutralization assay (5-point) [µg/mL]
B1 | 6.44
B2 | 0.45
B3 | 0.809
B4 | 0.795
B5 | 20.5
B6 | 1.82
B7 | 123
B8 | 0.383
B9 | 1.64
B10 | 0.928
B11 | 0.676
B12 | 0.488
B13 | 1.09
B14 | 2.1
B15 | 0.671
B16 | 0.98
B17 | 0.88
B18 | 1.17
B19 | 1.23
B20 | 1.3
